Test results from the supplement of paper PMC7826260.
The list shows a part of the results. Viral Rep nickase domains cut single-stranded DNA in vitro at 3 µM enzyme and 37 °C for 1 h; the strands have 90 letters, of which the middle is given. The score is log2 (uncut reads / reads without enzyme); the lower, the more was cut; hits are not called. Shares of all reads are compared, so uncut sequences can rise above 0 when many others are cut.

How the values were obtained:
Assay in all cases: uncleaved DNA left, log2 of reads against the no-enzyme library (log2 ratio); higher = less cleavage (more negative = more Rep cleavage of the k-mer); sequences stand for … in CTCGTCCG…ACCGGAGA
[1] = tested on: T1, Rep nickase domain of Muscovy duck circovirus
T1 sequence (residues 1-111 of Rep, tag left off): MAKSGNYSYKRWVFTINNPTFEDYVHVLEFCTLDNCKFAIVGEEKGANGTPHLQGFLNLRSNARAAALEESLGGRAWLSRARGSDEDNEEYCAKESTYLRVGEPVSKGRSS
Protocol: (§1)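 A pool of 90-nt single-stranded DNAs with seven random bases just before the constant AC of the nick site (name = the seven bases) was cut by 3 µM recombinant His6-SUMO-tagged Rep nickase domain (300 nM DNA, 50 mM HEPES pH 8.0, 50 mM NaCl, 1 mM MnCl2, 1 h, 37 °C, three replicates). Uncut DNA was amplified and sequenced.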

[2] = tested on: T2, Rep nickase domain of banana bunchy top virus
T2 sequence (residues 1-94 of Rep, tag left off): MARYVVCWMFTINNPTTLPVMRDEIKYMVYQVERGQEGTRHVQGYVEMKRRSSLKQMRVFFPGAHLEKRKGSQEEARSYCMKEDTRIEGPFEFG
Protocol: as §1

[3] = tested on: T3, Rep nickase domain of cabbage leaf curl virus
T3 sequence (residues 1-116 of Rep, tag left off): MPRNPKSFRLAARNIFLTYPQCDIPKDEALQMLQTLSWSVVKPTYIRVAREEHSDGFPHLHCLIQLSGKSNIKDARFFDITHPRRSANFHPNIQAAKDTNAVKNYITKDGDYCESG
Protocol: as §1

[4] = tested on: T4, Rep nickase domain of chickpea chlorotic dwarf virus
T4 sequence (residues 1-124 of Rep, tag left off): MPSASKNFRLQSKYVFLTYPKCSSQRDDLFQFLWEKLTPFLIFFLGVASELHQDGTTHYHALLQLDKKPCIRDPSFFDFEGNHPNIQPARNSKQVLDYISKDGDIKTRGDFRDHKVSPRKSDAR
Protocol: as §1

[5] = tested on: T5, Rep nickase domain of faba bean necrotic yellows virus
T5 sequence (residues 1-98 of Rep, tag left off): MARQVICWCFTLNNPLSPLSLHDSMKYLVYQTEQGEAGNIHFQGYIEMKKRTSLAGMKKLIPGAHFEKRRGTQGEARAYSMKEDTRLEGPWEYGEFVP
Protocol: as §1

[6] = tested on: T6, Rep nickase domain of maize striate mosaic virus
T6 sequence (residues 1-117 of Rep, tag left off): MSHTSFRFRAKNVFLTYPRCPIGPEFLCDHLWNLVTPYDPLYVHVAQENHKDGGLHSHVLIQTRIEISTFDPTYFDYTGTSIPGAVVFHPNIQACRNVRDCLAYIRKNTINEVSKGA
Protocol: as §1

[7] = tested on: T7, Rep nickase domain of porcine circovirus 2
T7 sequence (residues 2-116 of Rep, tag left off): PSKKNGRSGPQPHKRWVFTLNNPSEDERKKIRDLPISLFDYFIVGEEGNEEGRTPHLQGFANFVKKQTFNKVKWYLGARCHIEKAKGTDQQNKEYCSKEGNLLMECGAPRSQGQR
Protocol: as §1

[8] = tested on: T8, Rep nickase domain of tomato yellow leaf curl virus
T8 sequence (residues 1-136 of Rep, tag left off): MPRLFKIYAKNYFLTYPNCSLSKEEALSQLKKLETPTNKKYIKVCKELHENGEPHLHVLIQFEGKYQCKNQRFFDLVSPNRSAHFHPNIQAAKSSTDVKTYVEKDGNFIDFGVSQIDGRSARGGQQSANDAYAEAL
Protocol: as §1

[9] = tested on: T9, Rep nickase domain of wheat dwarf virus
T9 sequence (residues 1-137 of Rep, tag left off): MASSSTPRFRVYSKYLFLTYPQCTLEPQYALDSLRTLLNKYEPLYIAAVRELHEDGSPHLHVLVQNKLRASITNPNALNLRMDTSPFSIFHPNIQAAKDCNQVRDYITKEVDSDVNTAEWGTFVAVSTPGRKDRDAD
Protocol: as §1

Row | Sequence | uncleaved DNA left (log2) [1] | uncleaved DNA left (log2) [2] | uncleaved DNA left (log2) [3] | uncleaved DNA left (log2) [4] | uncleaved DNA left (log2) [5] | uncleaved DNA left (log2) [6] | uncleaved DNA left (log2) [7] | uncleaved DNA left (log2) [8] | uncleaved DNA left (log2) [9]
1 | CCGTTAA | 0.0562 | 0.0826 | 0.00946 | -0.275 | 0.0442 | -0.612 | 0.0475 | -0.00533 | 0.0863
2 | CCCGAAG | -0.0891 | 0.0371 | -0.669 | -0.465 | -0.0123 | -1.02 | 0.121 | -0.0328 | -0.115
3 | TGGGAAA | 0.108 | 0.165 | 0.914 | 1.99 | -0.0158 | 2.2 | 0.197 | 0.142 | 0.144
4 | TTCGTGT | 0.0513 | 0.00261 | -0.128 | -0.801 | 0.0481 | -0.829 | 0.00478 | -0.00568 | 0.0198
5 | ACAAGGC | -0.00663 | 0.0972 | -0.3 | -0.126 | 0.101 | -0.882 | 0.272 | 0.0813 | 0.0722
6 | GGGTGTC | -0.0183 | 0.00794 | 0.67 | 1.62 | -0.059 | 2.1 | 0.113 | 0.0162 | 0.0616
7 | CTGTTAC | -2.61 | -0.116 | -0.642 | -2.18 | -0.0237 | -0.531 | -2.94 | -0.0961 | -0.293
8 | CAAGATT | -0.208 | -0.156 | -2.38 | -2.36 | 0.1 | -0.189 | -0.993 | -0.167 | -0.645
9 | GGCACTA | -0.0231 | 0.036 | 0.509 | 1.41 | -0.0274 | 1.94 | 0.125 | -0.0184 | 0.0977
10 | TTGTTAG | 0.132 | -0.0385 | -0.696 | -0.57 | -0.0661 | -1.22 | 0.0417 | 0.00924 | -0.0969
11 | AGTACGG | 0.142 | 0.151 | 0.314 | 1.06 | 0.154 | 1.56 | 0.117 | -0.00398 | 0.0892
12 | TCCTGTC | 0.112 | -0.000111 | 0.139 | -0.223 | 0.0398 | -0.744 | 0.184 | 0.0169 | -0.00822
13 | CTCAGCG | -0.0579 | -0.0395 | -1 | 0.258 | 0.00164 | -0.906 | 0.0385 | -0.11 | -0.14
14 | GAGCAAC | 0.0297 | 0.092 | 0.224 | 0.597 | 0.0365 | 0.925 | -0.292 | -0.00767 | 0.0665
15 | CATGCCT | -0.0579 | -0.315 | -0.731 | -2.69 | -0.0102 | -1.32 | -0.311 | -0.044 | -0.168
